{"source": "PubChem BioAssay AID686979", "about": "(National Center for Advancing Translational Sciences (NCATS), 2013)", "note": "“And” between values parts separate entries of the source, which are not always exact repeats. Equal values may be shown once. Screen size: about 420,000 compounds; about 50,000 (12%) were called active. The shares of active, inactive and inconclusive entries below differ from those in the screen. Calls come from the whole dose curve; as a rule, active = well fitted inhibition curve with a large enough effect; inconclusive = small, poorly fitted or top-dose-only effect; inactive = flat fitted curve, though single readings scatter. A potency beside an inconclusive call is a rough fit, not a confirmed value. % is set by controls: 0 for no effect and ±100 for the full control effect; potency is the fitted concentration of half-maximal effect; tags give direction and shape of the fitted curve."}
{"assay": "qHTS for Inhibitors of human tyrosyl-DNA phosphodiesterase 1 (TDP1): qHTS in cells in presence of CPT; note: nearly all actives have a fitted effect of over 55% in size", "details": "chicken DT40 Tdp1-/-;hTDP1 cells + 20 nM CPT, ATP luminescence, 48 h; activity change, negative = growth inhibition: at 46.2 µM (top of the series) unless noted", "procedure,_shortened": "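Chicken DT40 Tdp1-/- cells stably complemented with human TDP1 were seeded at 400 cells/well in medium containing 20 nM camptothecin, exposed to pin-transferred compounds, and grown at 37 °C for at least 48 hr. Viability was read as ATP luminescence.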"}
{"compound": "CCOC(=O)c1cnc2ccc(OCC)cc2c1N1CCN(c2ccccc2F)CC1", "Potency": "active: 16.4 µM"}
{"compound": "Nc1cc(OCc2ccccc2)ccc1OCc1ccccc1", "Potency": "inconclusive: 25.9 µM [inhibitor, single point]"}
{"compound": "CC1CN(C(=O)COC(=O)c2cccc(S(=O)(=O)N3CCc4ccccc43)c2)CC(C)O1", "note": "(stereo not given)", "activity change, negative = growth inhibition": "inconclusive: -32.6% [inhibitor]"}
{"compound": "COc1ccc(NC(=O)C2(C)CCN2C2Cc3ccccc3C2)cc1OC", "note": "(stereo not given)", "Potency": "inconclusive: 29.1 µM [inhibitor, single point]"}
{"compound": "Cc1ccc(Cn2nnc3c(=O)[nH]c(C4CCN(S(=O)(=O)c5ccccc5)CC4)nc32)cc1", "activity change, negative = growth inhibition": "inactive: -10.5%"}
{"compound": "CCOC(=O)C1C(=O)NC(c2ccccc2)=NC1c1ccc(C(C)C)cc1", "note": "(stereo not given)", "Potency": "inconclusive: 18.4 µM [inhibitor, partial curve]"}
{"compound": "Cc1ccc(S(=O)(=O)/N=C(\\N)Nc2nc(C)c3cc(C)c(C)cc3n2)cc1", "Potency": "active: 23.1 µM"}
{"compound": "CCOc1ccc(NC2=C(OC)C(=O)c3ccccc3C2=O)cc1", "Potency": "active: 20.6 µM"}
{"compound": "COc1ccc(S(=O)(=O)n2nc(OC(=O)c3cccs3)cc2NC(=O)c2cccs2)cc1", "Potency": "inconclusive: 20.6 µM [inhibitor, single point]"}
{"compound": "NCCCCNS(=O)(=O)c1ccc2c(Cl)cccc2c1", "Potency": "active: 11.9 µM"}
{"compound": "COc1ccc(-c2cc(C(F)(F)F)nc(SCC(=O)N(C)Cc3cnn(C)c3C)n2)cc1OC", "Potency": "active: 16.4 µM"}
{"compound": "CCOc1ccc(NC(=O)c2ccc3snnc3c2)cc1", "Potency": "inconclusive: 29.1 µM [inhibitor, single point]"}
{"compound": "Cc1nc(N2CCCC2)c2c(C(=O)Nc3ccc(Br)cc3F)c(C)oc2n1", "Potency": "inconclusive: 18.4 µM [inhibitor, single point]"}
{"compound": "CCOC(=O)c1c(C)n(-c2ccccc2)c2ccc(OC(=O)c3cccc(Cl)c3)cc12", "Potency": "inconclusive: 25.9 µM [inhibitor, single point]"}
{"compound": "Cc1ccccc1C(=O)Nc1nc(-c2ccc(Br)cc2)ns1", "Potency": "active: 16.4 µM"}
{"compound": "CC(C)NC(=O)C1CCC(Cn2c(=O)c3sccc3n(CC(=O)Nc3ccccc3)c2=O)CC1", "note": "(stereo not given)", "Potency": "inconclusive: 29.1 µM [inhibitor, single point]"}
{"compound": "COc1cccc(NC(=O)CN(C)C(=O)c2cc(S(=O)(=O)N3CCCCC3)ccc2Cl)c1", "Potency": "inconclusive: 32.6 µM [inhibitor, single point]"}
{"compound": "CCOCc1c(C(=O)Nc2ccc3nc(N4CCOCC4)sc3c2)oc2ccccc12", "Potency": "active: 20.6 µM"}
{"compound": "c1ccc(COn2c(-c3ccccc3)nc3c2CCc2nonc2-3)cc1", "Potency": "inconclusive: 29.1 µM [inhibitor, single point]"}
{"compound": "O=C(Cc1ccccc1)NCCS(=O)c1ccc(Cl)cc1", "note": "(stereo not given)", "Potency": "inconclusive: 29.1 µM [inhibitor, single point]"}
{"compound": "COCCNC(=O)c1ccc(N2CC3CC(C2)c2cccc(=O)n2C3)c(NC(=O)c2ccc(C(C)(C)C)cc2)c1", "note": "(stereo not given)", "activity change, negative = growth inhibition": "inactive: -24.2%"}
{"compound": "COc1ccc(NC(=O)C2C(c3ccccc3)C2(Cl)Cl)c(OC)c1", "note": "(stereo not given)", "activity change, negative = growth inhibition": "inactive: -29.1%"}
{"compound": "COC(=O)CCN(C1CCCCC1)S(=O)(=O)c1ccc(S(=O)(=O)NC2CCCCC2)cc1", "Potency": "inconclusive: 23.1 µM [inhibitor, single point]"}
{"compound": "N/C(=N\\OC(=O)c1cc([N+](=O)[O-])ccc1Cl)c1ccccn1", "Potency": "inconclusive: 18.4 µM [inhibitor, single point]"}
{"compound": "CCN(CC)C(=O)Cn1c(=O)n(Cc2ccc(F)cc2)c(=O)c2sccc21", "Potency": "active: 9.2 µM"}
{"compound": "C=CCc1ccc(OCCOc2cccc(/C=N/n3cnnc3)c2)c(OC)c1", "Potency": "inconclusive: 29.1 µM [inhibitor, single point]"}
{"compound": "Cn1c(=O)c2c(nc(N3CCOCC3)n2CCNC2=NCCC2)n(C)c1=O", "activity change, negative = growth inhibition": "inactive: -6.91%"}
{"compound": "COCCN(Cc1nc2ccccc2c(=O)[nH]1)C(=O)c1cccc(S(=O)(=O)N2CCCC2)c1", "Potency": "inconclusive: 13 µM [inhibitor, partial curve]"}
{"compound": "CC(C)n1c(SCc2ccccc2F)nc2c1c(=O)n(C)c(=O)n2C", "Potency": "active: 20.6 µM"}
{"compound": "Cc1cccc(-n2c(C)c(-c3ccccc3)[nH]c2=S)c1", "Potency": "inconclusive: 29.1 µM [inhibitor, single point]"}
{"compound": "CC(=O)c1cc(-c2ccccc2)n(CC(=O)NCCc2ccc(C)cc2)c1C", "Potency": "active: 14.6 µM"}
{"compound": "CC(C)Oc1ccc(CNC(=O)C2CCN(C(=O)N3CC(C)Oc4ccccc43)CC2)cc1", "note": "(stereo not given)", "Potency": "inconclusive: 29.1 µM [inhibitor, single point]"}
{"compound": "CCOC(=O)c1ccc(CN(Cc2ccccc2)S(=O)(=O)c2ccc(Cl)cc2)cc1", "Potency": "inconclusive: 16.4 µM [inhibitor, single point]"}
{"compound": "CCCCCn1c(NC(=O)c2ccco2)c(S(=O)(=O)c2ccc(C)cc2)c2nc3ccccc3nc21", "Potency": "active: 20.6 µM"}
{"compound": "COc1ccc(-n2c(=O)c(-c3cc(F)cc(F)c3)nc3cnc(N4CCNCC4)nc32)cc1", "Potency": "active: 14.6 µM"}
{"compound": "Cc1cccc(NC(=O)CCNS(=O)(=O)c2cc(Br)cnc2N)c1C", "activity change, negative = growth inhibition": "inactive: -7.65%"}
{"compound": "N#CC1(NC(=O)CSc2nnc(-c3ccccc3F)n2N)CCCCC1", "activity change, negative = growth inhibition": "inactive: -0.291%"}
{"compound": "COC(=O)[C@@]12C[C@@H](CC(=O)N3CCN(C(=O)C4CC4)CC3)C(=O)N(Cc3ccccc3)C1=CCC(C)(C)C2", "Potency": "inconclusive: 18.4 µM [inhibitor, single point]"}
{"compound": "COc1ccc(OC)c(C2c3c(-c4ccc(Br)cc4)n[nH]c3C(=O)N2c2ccc(Cl)cc2)c1", "note": "(stereo not given)", "Potency": "inconclusive: 18.4 µM [inhibitor, single point]"}
{"compound": "CN1CCCN(C(c2ccccc2)c2ccc(Cl)cc2)CC1", "note": "(stereo not given)", "Potency": "inconclusive: 33.5 µM [inhibitor, single point] and inconclusive: 29.1 µM [inhibitor, single point]"}
{"compound": "CCOc1cc(N2CCOCC2)c(OCC)cc1NC(=O)CN1CCN(Cc2ccc3c(c2)OCO3)CC1", "Potency": "inconclusive: 29.1 µM [inhibitor, single point]"}
{"compound": "Cc1nc(N/N=C/c2ccc(O)cc2)c2cnn(-c3ccccc3)c2n1", "Potency": "inconclusive: 29.1 µM [inhibitor, single point]"}
{"compound": "CC1(C)Cc2[nH]c(=S)c(C#N)cc2CO1", "activity change, negative = growth inhibition": "inactive: -23.7%"}
{"compound": "COC(=O)c1cc(=O)n2c(-c3ccc(OC)cc3)csc2n1", "activity change, negative = growth inhibition": "inactive: 3.88%"}
{"compound": "COc1cccc(C(C)(O)c2nc(-c3ccoc3)cs2)c1", "note": "(stereo not given)", "Potency": "inconclusive: 29.1 µM [inhibitor, partial curve]"}
{"compound": "COCCn1nnnc1CN(CCc1ccc(OC)c(OC)c1)Cc1cc2ccc(C)cc2[nH]c1=O", "Potency": "inconclusive: 20.6 µM [inhibitor, single point]"}
{"compound": "COc1cccc(N2CCN(C(=O)CC(C)(C)CC3=NS(=O)(=O)c4ccccc4N3)CC2)c1", "Potency": "active: 14.6 µM"}
{"compound": "O=C1CN(C(=O)CN2CCN(S(=O)(=O)c3ccccc3F)CC2)c2ccccc2N1", "activity change, negative = growth inhibition": "inactive: -12.9%"}
{"compound": "O=C(Nc1ccccn1)C(=O)Nc1ccccn1", "activity change, negative = growth inhibition": "inactive: -3.78%"}
{"compound": "CCOc1ccccc1-c1noc(CSc2nnc(-c3ccccc3)n2-c2cccc(C)c2)n1", "Potency": "inconclusive: 29.1 µM [inhibitor, single point]"}
{"compound": "Nc1ncc(-c2ccc(-c3ccccc3)cc2F)cc1-c1ccccc1F", "Potency": "inconclusive: 14.6 µM [inhibitor, partial curve, poor fit]"}
{"compound": "OCc1ccccc1OCCCN1CCC(Cc2ccccc2)CC1", "activity change, negative = growth inhibition": "inactive: -1.24%"}
{"compound": "COc1ccc(S(=O)(=O)N(C)c2nc3ccccc3n3c(CC(C)C)nnc23)cc1", "Potency": "active: 25.9 µM"}
{"compound": "CCOC(=O)c1c(Nc2cccc(C(=O)OC)c2)nnc(-c2ccccc2)c1-c1ccccc1", "Potency": "inconclusive: 14.6 µM [inhibitor, partial curve, poor fit]"}
{"compound": "O=C(Cc1ccccc1)N1CCC(c2nc(-c3ccc(F)cc3)no2)CC1", "activity change, negative = growth inhibition": "inconclusive: -31.9% [inhibitor]"}
{"compound": "Cc1ccc(NC2c3ncccc3C(=O)N2C2CCCCC2)cc1C", "note": "(stereo not given)", "Potency": "inconclusive: 10.3 µM [inhibitor, partial curve]"}
{"compound": "CCn1cc(CCC(=O)NC(C)c2ccccc2)c2ccccc21", "note": "(stereo not given)", "activity change, negative = growth inhibition": "inactive: -13.1%"}
{"compound": "COc1ccc([N+](=O)[O-])cc1NC(=O)C(C)OC(=O)/C=C/c1ccco1", "note": "(stereo not given)", "activity change, negative = growth inhibition": "inactive: -13%"}
{"compound": "c1nc(SSc2ncnc3nc[nH]c23)c2[nH]cnc2n1", "Potency": "active: 5.8 µM"}
{"compound": "Cc1ccc(-n2ncc(Br)c(Br)c2=O)cc1", "Potency": "active: 4.11 µM"}
{"compound": "CCOc1ccc(S(=O)(=O)NCC(c2ccco2)S(=O)(=O)c2ccc(C)cc2)cc1", "note": "(stereo not given)", "Potency": "inconclusive: 29.1 µM [inhibitor, single point]"}
{"compound": "CCOC(=O)C1(Cc2cccc(Cl)c2)CCCN(C(=O)CCNC(C)=O)C1", "note": "(stereo not given)", "Potency": "inconclusive: 29.1 µM [inhibitor, single point]"}
{"compound": "Cc1ccc(S(=O)(=O)N2CCN(C(=O)N(C)C)CC2)cc1C", "Potency": "inconclusive: 18.4 µM [inhibitor, single point]"}
{"compound": "COCCNc1nc(NC(C)C)nc2ccsc12", "activity change, negative = growth inhibition": "inactive: -29.6%"}
{"compound": "COc1ccccc1C(=O)Nc1ccc(NC(=O)c2cccs2)cc1", "Potency": "inconclusive: 5.8 µM [inhibitor, single point]"}
{"compound": "C=CCNc1ncnc2c1ncn2[C@H]1CN(Cc2ccc3c(c2)OCO3)C[C@@H](CO)O1", "Potency": "inconclusive: 29.1 µM [inhibitor, single point]"}
{"compound": "CC1CCCCC1NC(=O)CSc1nnc(C(F)(F)F)n1C", "note": "(stereo not given)", "activity change, negative = growth inhibition": "inactive: -2.54%"}
{"compound": "COc1ccc(-c2ccc(N3C(c4cc(OC)cc(OC)c4)=Cc4ccc(OC)cc4C3CC(C)=O)cc2)cc1", "note": "(stereo not given)", "Potency": "active: 5.17 µM"}
{"compound": "O=C(Nc1cccc(C(F)(F)F)c1)N1CCC(CN2CCCCCC2)CC1", "Potency": "inconclusive: 16.4 µM [inhibitor, single point]"}
{"compound": "CCOC(=O)c1c(CCl)nc2ccccc2c1C", "Potency": "inconclusive: 25.9 µM [inhibitor, single point]"}
